# Test results taken from article PMC4336329 (PLoS ONE, 2015).
# In all, about 310,000 compounds went through this assay and about 14,000 (4.5%) showed an effect of 50% or more. The effect is printed as a negative number. Some of the results follow.
# Target: human ether-à-go-go-related gene (hERG) potassium channel (human, UniProt Q12809)
# Test: primary screen, population patch clamp on CHO cells stably expressing hERG
# 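Also: peak tail current of the secondary pulse compared with the same well before compound.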
# Sequence of human ether-à-go-go-related gene (hERG) potassium channel (Q12809 whole entry, looked up): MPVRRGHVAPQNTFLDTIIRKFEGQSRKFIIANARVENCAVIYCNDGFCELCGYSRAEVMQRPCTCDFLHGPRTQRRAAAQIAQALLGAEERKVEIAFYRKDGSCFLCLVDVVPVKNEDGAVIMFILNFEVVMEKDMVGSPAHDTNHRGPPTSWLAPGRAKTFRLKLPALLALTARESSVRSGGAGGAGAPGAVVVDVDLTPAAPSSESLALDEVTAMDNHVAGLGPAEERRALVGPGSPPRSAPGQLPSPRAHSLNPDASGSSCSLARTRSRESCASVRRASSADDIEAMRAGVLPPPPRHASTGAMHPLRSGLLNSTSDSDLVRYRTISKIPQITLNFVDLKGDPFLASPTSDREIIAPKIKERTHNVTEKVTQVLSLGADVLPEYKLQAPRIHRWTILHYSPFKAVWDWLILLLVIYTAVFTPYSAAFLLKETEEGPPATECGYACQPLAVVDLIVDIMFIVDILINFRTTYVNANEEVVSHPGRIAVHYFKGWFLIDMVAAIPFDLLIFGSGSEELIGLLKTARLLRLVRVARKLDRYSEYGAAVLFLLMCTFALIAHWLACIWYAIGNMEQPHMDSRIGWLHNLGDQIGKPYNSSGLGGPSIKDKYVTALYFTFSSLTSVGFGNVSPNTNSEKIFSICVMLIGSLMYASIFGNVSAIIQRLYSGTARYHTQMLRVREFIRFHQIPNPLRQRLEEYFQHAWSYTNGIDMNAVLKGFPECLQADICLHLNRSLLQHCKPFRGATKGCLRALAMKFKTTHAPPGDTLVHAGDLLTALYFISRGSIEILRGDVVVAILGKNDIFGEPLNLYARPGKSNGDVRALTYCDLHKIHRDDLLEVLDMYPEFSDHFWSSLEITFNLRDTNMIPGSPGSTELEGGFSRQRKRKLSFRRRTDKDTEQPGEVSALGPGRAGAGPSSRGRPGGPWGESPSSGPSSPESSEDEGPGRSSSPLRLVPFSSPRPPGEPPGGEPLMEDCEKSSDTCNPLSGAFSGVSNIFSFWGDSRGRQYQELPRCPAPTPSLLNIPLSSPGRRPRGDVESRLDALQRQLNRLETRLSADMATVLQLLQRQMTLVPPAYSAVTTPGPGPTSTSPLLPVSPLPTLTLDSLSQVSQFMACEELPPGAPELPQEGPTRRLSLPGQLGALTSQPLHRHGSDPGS
row,SMILES,"hERG current change (%, negative = inhibition) at 10uM [%]"
1,Cc1[nH]n2c(=O)c(C#N)c(-c3ccccc3)nc2c1-c1ccccc1,16.5
2,COc1cccc(CNC(=O)CN2CCC(c3nc4ccc(C)cc4[nH]3)CC2)c1,-68.4
3,CC1SC(C)C(=O)N(CC(=O)Nc2ccc([N+](=O)[O-])cc2)C1=O (stereo not shown),-18.2
4,N/C(=N\N=C\c1cccs1)SC1CC(=O)N(c2cccc([N+](=O)[O-])c2)C1=O (stereo not shown),5.92
5,CCSc1[nH]c2ccccc2[nH+]1.[Cl-],5.51
6,CS(=O)(=O)N1CCC(C(=O)NCc2ccco2)CC1,6.1
7,O=C(NCCCN1CCOCC1)c1cc2ccccc2o1,4.37
8,CN(C)C(CNC(=O)c1ccc(Br)cc1)c1ccco1 (stereo not shown),7.58
9,O=C(CN1C(=O)COc2ccc(S(=O)(=O)N3CCOCC3)cc21)Nc1cccc(Cl)c1,18.4
10,Cc1nnc(SCC(=O)Nc2cc(-c3cc(C)c(C)cc3C)nn2-c2ccccc2)s1,-26.2
11,O=C(Nc1ccc(OC(=O)c2ccccc2)c(-c2nc3ccccc3s2)c1)c1ccccc1,21.5
12,CC1CCCCC1NC(=O)CCNS(=O)(=O)c1ccc(Cl)cc1 (stereo not shown),-18.1
13,CCCCc1nc2cc(C(=O)NC(C)c3cnn(C)c3)ccc2o1 (stereo not shown),-0.0448
14,COc1ccc(S(=O)(=O)NCC2CCCO2)cc1NC(=O)c1ccccc1 (stereo not shown),-15.4
15,CC(=O)OCCCNc1cc(Sc2ccc(Cl)cc2)c2nonc2c1[N+](=O)[O-],17.5
16,Cc1ccccc1NC(=O)Cc1nc(COC(=O)Cc2ccccc2)cs1,-14.2
17,COC(=O)CCC(=O)OC1(C)C(=O)C2=CN(Cc3ccccc3)C(c3ccc(OC)cc3)=CC2=C(Br)C1=O (stereo not shown),2.01
18,CCn1c(C(=O)N2CCCC(C(=O)NCCc3ccc(C)cc3)C2)cc2sccc21 (stereo not shown),-45.2
19,C=CCNC(=O)C1CC(=O)N(c2ccc(OCc3ccc(F)cc3)cc2)C1 (stereo not shown),12.2
20,Cc1nn(-c2ncc(C(F)(F)F)cc2Cl)c(=O)n1-c1cccc(F)c1,-0.241
21,CCOC(=O)c1cnc2c(Cl)cc(Cl)cc2c1NCCCN1CCOCC1,-4.47
22,COc1cc(OC)cc(C(=O)N(CN2CCCC2=O)c2ccccc2OC)c1,-9.07

row,SMILES,"hERG current change (%, negative = inhibition) at 10uM [%]"
1,C/C(=N\NC(=O)CCC(=O)Nc1ccc(C)c(C)c1)c1cccs1,23.1
2,Nc1nc(Br)c2c(F)cccc2c1-c1ccc(F)cc1,-1.07
3,CCn1c(SCCOc2ccc(Cl)cc2)nnc1-c1cccs1,-53.8
4,CC(=O)NC(CC(=O)OCc1ccc([N+](=O)[O-])cc1)c1ccccc1 (stereo not shown),-63.1
5,COc1cc(/C=N/NC(=O)c2cccc(N3CCCC3=O)c2)ccc1O,14.4
6,Cc1ccc(N(C(=O)Cn2nnc(-c3ccccc3)n2)C(C(=O)NC2CCCCC2)c2ccccn2)cc1C (stereo not shown),12.1
7,OCCC1CN(Cc2nc3ccccc3s2)CCN1C1CCCCC1 (stereo not shown),-60
8,CCCCNC(=O)/C(C#N)=C/c1cccnc1,5.91
9,COc1ccc(NC(=O)C(OC(=O)c2ccc([N+](=O)[O-])o2)c2ccccc2)cc1Cl (stereo not shown),-18.4
10,CCN(CC)c1ccc(/C=N/NC(=O)c2cc(C)nc3ccccc23)cc1,-6.45
11,CC(=O)c1cccc(NC(=O)c2ccc(CN3CCc4ccccc4C3)cc2)c1,-6.26
12,CCn1c(=O)cc(SCC(=O)NCc2ccc3c(c2)OCO3)c2ccccc21,-25.2
13,COC(=O)c1ccccc1NC(=O)CSc1nc(NC(=O)c2ccccc2)c2c(C)c(C)oc2n1,15.6
14,CCCCSc1[nH]c(=O)c(C(=O)OCC)cc1C#N,-3.9
15,NC(=O)c1ccc[n+](CC(=O)c2cccc([N+](=O)[O-])c2)c1.[Br-],16.9
16,O=C(COC(=O)c1ccc(-c2ccccc2)cc1)Nc1ccccc1-c1ccccc1,5.61
17,Cc1noc(C)c1CSCC(=O)N(CCC(C)C)c1c(N)n(Cc2ccccc2)c(=O)[nH]c1=O,21.4
18,Cn1c(SCc2ccccc2C#N)nc2ccccc2c1=O,22.5
19,CC1CCCCC1NC(=O)c1cccc(S(=O)(=O)N2CCN(C)CC2)c1 (stereo not shown),-7.48
20,Cc1ccc(CNc2ccc(S(=O)(=O)N3CCOCC3)cc2[N+](=O)[O-])cc1,-20.4
21,CC1CN(c2oc(Cc3cccc4ccccc34)nc2C#N)CC(C)O1 (stereo not shown),-1.84
22,CSCC[C@H](NC(=O)[C@@H]1CSC2c3ccccc3C(=O)N21)C(=O)NC1CCCC1 (stereo partly shown),2.54

row,SMILES,"hERG current change (%, negative = inhibition) at 10uM [%]"
1,CCOC(=O)Cn1nc(C)c(NC(=O)COc2cccc(Cl)c2)c1C,2.62
2,O=C(Cc1ccccc1)N/N=C/c1ccccc1Cl,2.14
3,CCCn1c(=S)[nH]c2cc(C(=O)N3CCc4ccccc4C3)ccc2c1=O,11.6
4,CC[C@H](C)/C=C/C1=CC2=C(Cl)C(=O)[C@@]3(C)OC(=O)C(C(=O)[C@H](C)[C@@H](C)O)=C3C2=CO1,11.2
5,CCOC(=O)Cc1cc(=O)n2[nH]c(C)c(-c3ccccc3)c2n1,-4.84
6,C=CCN(Cc1ccc(Cl)s1)C(=O)CNC(=O)CNC(=O)c1ccc(Cl)cc1Cl,-70.6
7,CN(C(=O)c1cccc(NC(=O)c2cccs2)c1)c1ccccc1,-1.32
8,Clc1ccc(OCCN2CCN(c3ncnc4sccc34)CC2)cc1,-81.2
9,O=C(CSCc1ccccc1Cl)NN=C1CCCCCC1,-17.8
10,Cc1ccc(S(=O)(=O)N2CCCC2)cc1C(=O)N1CCN(Cc2ccccc2)CC1,-8.29
11,CC(=O)c1cccc(N(C(=O)Cn2nnc3ccccc32)C(C(=O)NCc2ccccc2)c2ccccn2)c1 (stereo not shown),-39
12,COC(=O)COc1ccc(NC(=O)c2ccco2)cc1,0.568
13,COc1cc(CCNC(=O)c2cnn3ccccc23)cc(OC)c1OC,0.701
14,COc1ccc(NC(=O)CN2CCN(S(=O)(=O)c3ccc(F)cc3)CC2)cc1Cl,-1.67
15,CN(CC(=O)Nc1ccccc1Cl)CC(=O)Nc1sc2c(c1C(N)=O)CCC2,-66.2
16,CC(=O)Oc1oc(-c2ccccc2)nc1C=Nc1ccc(N(C)C)cc1,14.2
17,CN(CC(=O)Nc1ccc(N2CCOCC2)cc1)C(=O)c1cccc(Cl)c1Cl,-7.53
18,Cc1ccc(C(=O)CSc2nnc(C(C)C)n2C)cc1C,11.2
19,COc1ccc(COCC(CC(C)C)N2CCN(C(=O)c3cccc(C(F)(F)F)c3)CCC2=O)cc1 (stereo not shown),-19.8
20,O=C(O)/C=C/c1ccccc1Oc1ccc(Cl)cc1Cl,-8.85
21,COc1ccc(-c2ccc(=O)n(CC(=O)Nc3cccc(O)c3)n2)cc1OC,19.8
22,Cc1noc(C)c1COc1ccccc1C(=O)NNC(=O)C(C)Oc1ccccc1F (stereo not shown),-33.9

row,SMILES,"hERG current change (%, negative = inhibition) at 10uM [%]"
1,Cc1ccc2c(Cl)c(C(=O)NCC(c3ccco3)N3CCCC3)sc2c1 (stereo not shown),3.84
2,CCN(CCNC(=O)C1CCN(S(=O)(=O)CC)CC1)c1ccccc1,-16.9
3,CSc1nc(C(=O)N2CCCC(Nc3ccc(C)c(C)c3)C2)cs1 (stereo not shown),-22.4
4,CCN(C(=O)COC(=O)c1c(C)noc1C)C1CCS(=O)(=O)C1 (stereo not shown),25.6
5,CN1C(=O)c2ccccc2C(C(=O)NCCCN2CCCC2=O)C1c1c[nH]c2ccccc12 (stereo not shown),12.4
6,COc1ccc(NC(=S)N=Nc2c(O)[nH]c3ccccc23)cc1,2.26
7,CCOc1ccccc1OC(=O)c1ccco1,-2.36
8,Cc1c(C)c2c(c(C)c1O)CC[C@@](C)(CCC[C@H](C)CCC[C@H](C)CCCC(C)C)O2,9.88
9,Cl.Nc1ccc(O)c2ccccc12,11.6
10,Cc1ccc(Cl)cc1N1CCN(C(CC(C)C)c2nnnn2CC2CCCO2)CC1 (stereo not shown),1.21
11,CS(=O)(=O)N(CC(=O)NCc1ccco1)c1cccc([N+](=O)[O-])c1,-7.78
12,COc1ccc(S(=O)(=O)N2CCCC(C(=O)NCCC3=CCCCC3)C2)cc1 (stereo not shown),12.1
13,COc1ccc(N2CCN(C(c3cccc(OC)c3OC)c3nnnn3C3CCCC3)CC2)cc1.Cl (stereo not shown),7.82
14,Cc1nc2ccccn2c1C(=O)NCc1cccnc1,-3.36
15,O=C(CSCc1c(F)cccc1Cl)NCCSCc1ccco1,0.51
16,CCC(C)(C)NC(=O)C(c1ccccn1)N(C(=O)c1csnn1)c1ccc(C)cc1 (stereo not shown),-10.2
17,O=C(CSc1nnc(NC2CC2)s1)NN1C(=O)NC2(CCCCC2)C1=O,-1.61
18,CCc1nc2ccccc2nc1N1CCN(S(=O)(=O)c2ccccc2)CC1,7.4
19,COc1ccc(CN(C)C(=O)COC(=O)c2c(-c3ccccc3Cl)noc2C)cc1,-15.1
